Measured values published in article PMC12040169 (PLOS Biology, 2025).
This is one part of the list.

The compounds below were run on T1, C. trachomatis L2/434/Bu expressing GFP (CTL2-GFP). Details: total inclusion area; 28.5 h, 10 µM; inhibitor.
T1 construct: L2/434/Bu GFP intracellular growth in HeLa cells
Set-up: species or system HeLa; C. trachomatis total inclusion area by high-content imaging, normalised to DMSO
How it was run: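 After bulk GFP and resorufin fluorescence reads, cells were fixed, stained with Hoechst and imaged by high-content microscopy. Inclusion area and number (GFP) stood in for chlamydial growth, nuclei count (Hoechst) for host cell viability. MICs were derived as for the bulk readout.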

Row | Compound | % of control remaining
1 | O=C(Nc1cccc(Cn2cccn2)c1)c1csc2ccccc12 [CBK268123] | 107.07
2 | CC(C)C(=O)N1CC2(CCN(Cc3nc4ccccc4s3)CC2)c2ccccc21 [CBK136980] | 85.2977
3 | Cc1cc(Cl)ccc1CNC(=O)c1ccc(-c2ccoc2)nc1 [CBK156254] | 101.281
4 | COc1cncc(-c2cncc(N[C@H](CO)C(C)C)n2)c1 [CBK065329] | 113.449
5 | Cc1nc(CN2CCN(CCc3ccccc3)CC2)cs1 [CBK126457] | 83.6425
6 | CC(C)C(CNCc1ccc(F)c(Cl)c1)c1ccnn1C (stereo not drawn) [CBK305130] | 70.6563
7 | Cc1cc(NC(=O)c2cccc(Br)c2)nc2c1c(=O)oc1ccccc12 [CBK291238] | 105.119
8 | Cn1c2c(c(=O)n(C)c1=O)CN(CCN1CCNCC1)CN2 [CBK265218] | 115.06
9 | Cc1ccc(OC(C)C(=O)NCc2ccccc2)cc1 (stereo not drawn) [CBK269016] | 97.1359
10 | Sc1nnc(-c2ccncc2)n1/N=C/c1c[nH]c2ccccc12 [CBK265272] | 101.584
11 | COc1ccc(S(=O)(=O)N(C)c2ccc(C(=O)NCc3ccccn3)cc2)cc1 [CBK269099] | 121.58
12 | COCC(=O)N1CCN2C(=O)c3ccccc3NC(=O)[C@@H]2C1 [CBK289582] | 110.971
13 | COc1cc(CN2CCN(Cc3cccc4ccccc34)CC2)c([N+](=O)[O-])cc1OC [CBK074450G] | 74.0491
14 | CCc1ccc(C(=O)c2ccccc2C(=O)O)cc1 [CBK010776] | 103.639
15 | CN(C)C(=O)n1cc(Cl)c(-c2ccccc2)n1 [CBK004985] | 95.8621
16 | CCc1cccc(CC)c1NC(=O)CC1SC(NCc2ccc(C)cc2)=NC1=O (stereo not drawn) [CBK059431] | 96.2944
17 | CC(=O)Nc1cccc(-c2cn3ccnc3c(N[C@@H](CO)C(C)C)n2)c1 [CBK036605] | 112.273
18 | O=C1CC(c2nc3ccccc3n2CCc2ccccc2)CN1c1ccccc1 (stereo not drawn) [CBK266311] | 102.508
19 | CC(=O)Nc1ccc(CN2CCC[C@H]2c2nc(-c3ccnc(NS(C)(=O)=O)c3)no2)cc1 [CBK288888] | 91.8563
20 | COc1cccc(CN2CCN(CC(=O)N3CCCC3)[C@@H](C)C2)c1 [CBK286171] | 84.3511
21 | O=C(NC(=S)Nc1ccc2oc(-c3ccncc3)nc2c1)c1ccccc1[N+](=O)[O-] [CBK264106] | 75.398
22 | CN1CCN(NC(=O)c2cc(-c3cccnc3)nc3ccc(Cl)cc23)CC1 [CBK267729] | 100.632
23 | NC(=O)c1ccc(Nc2cc(N)ncn2)cc1 [CBK017969] | 84.9409
24 | Cc1cc(C)n(CC(=O)N2CCCC2c2ccc(C)c(C)c2)c(=O)n1 (stereo not drawn) [CBK282991] | 108.652
25 | CCN(CC)C(=O)CN1CCC(Oc2cncc(OCCN3CCOCC3)n2)C1 (stereo not drawn) [CBK084490] | 90.5322
26 | CCN(CC)CCN1CCN(c2cncc(-c3ccc(F)cc3F)n2)CC1 [CBK065668] | 120.976

Row | Compound | % of control remaining
27 | CCCc1ccc(S(=O)(=O)n2ccn(-c3ccc4c(c3)OCO4)c2=O)cc1 [CBK106634] | 91.1526
28 | COC(=O)c1ccc(N2CCN(Cc3nc(C)c(C)o3)C(C)C2)cc1 (stereo not drawn) [CBK304903] | 87.4682
29 | CC(=O)C12c3ccccc3C(c3ccccc31)C1C(=O)N(c3ccc(Cl)c(C(=O)O)c3)C(=O)C12 (stereo not drawn) [CBK263021] | 98.9987
30 | COc1cc(/C=C2\C(=O)N(c3ccccc3Cl)N=C2c2ccccc2)ccc1O [CBK265698] | 104.728
31 | O=C1CN(C(=O)Nc2ccc3[nH]ccc3c2)CCN1 [CBK155858] | 103.977
32 | C=CCn1ncc(CN(C)Cc2nc3ccccc3[nH]2)c1C [CBK283169] | 84.5765
33 | COc1ccc2c(c1)C(C)CC(C)(C)N2C(=O)CSc1nnc(-c2ccco2)n1C (stereo not drawn) [CBK059169] | 99.2116
34 | OCCN1CCC2(CC1)CN(CCO)c1ccccc12 [CBK126759] | 97.8273
35 | CCN(CC(=O)NCc1ccc(Cl)cc1)S(=O)(=O)N1CCCCCC1 [CBK305733] | 90.9173
36 | CN1C(c2ccccc2)=NO[C@]1(C)c1ccccc1 [CBK027170] | 30.0735
37 | CCCn1nc(C)c(-c2cncn2CCCN2CCCCC2)c1C [CBK281496] | 88.0383
38 | CN1CCN(NC(=O)COc2cccc(C(F)(F)F)c2)CC1 [CBK268124] | 94.295
39 | COc1ccc(C(=O)N2CCC3(CCCN(C(=O)CC4NC(=O)NC4=O)C3)C2)cc1OC (stereo not drawn) [CBK137082] | 90.0687
40 | CC(=O)NC(c1ccccn1)C1CCCN(C(=O)C2CC2C)C1 (stereo not drawn) [CBK285032] | 89.3746
41 | O=C(N[C@H]1CCN2C(=O)c3cc(Br)ccc3NC(=O)[C@H]12)c1cccc(F)c1 [CBK289334] | 111.025
42 | CCC(c1ccc(F)cc1)N(C)C(=O)Cn1cccc(C(=O)NC2CCCCC2)c1=O (stereo not drawn) [CBK286114] | 95.6434
43 | CC(C)Nc1cc(Sc2ccccc2N)ncn1 [CBK093729] | 72.5457
44 | O=C(Cn1cnc2c(cnn2-c2ccccc2)c1=O)NCc1ccco1 [CBK287531] | 120.049
45 | N#Cc1cccnc1N1CC2COCCC2(C(=O)N2CCC=C(F)C2)C1 (stereo not drawn) [CBK304744] | 89.6029
46 | COc1ccccc1/C=N/N=C(/Nc1ccc(C)cc1)c1nc2ccccc2s1 [CBK265051] | 97.941
47 | Cc1ccn2cc(CNC(=O)N(C)CCc3scnc3C)nc2c1 [CBK307379] | 89.5473
48 | CC(=O)N1CC[C@H]2NC(=O)CNC(=O)C3(CCCC[C@H]2C1)CCN(C(=O)CN1CCCCC1)CC3 [CBK292120] | 111.264
49 | O=C(NC(c1ccccc1)c1ccccc1)c1ccc(Cl)cc1[N+](=O)[O-] [CBK262452] | 94.5736
50 | CC(O)CN(CC(C)O)CC1CC2C=CC1C2 (stereo not drawn) [CBK261896] | 99.2683
51 | NC(=O)c1cccc(-c2cnc(N)c(N3CCC[C@@H]3CO)n2)c1 [CBK063458] | 107.289
52 | O=C(O)CSc1nc(Nc2ccccc2)nc(N2CCOCC2)n1 [CBK269023] | 90.005

Row | Compound | % of control remaining
53 | CCNC(=O)C1(Cc2ccccc2-c2ccccc2)CCN(C(=O)c2cccc(F)c2)CC1 [CBK285689] | 109.143
54 | CC(C)(C)c1cc(CCC(=O)NNC(=O)c2ccccc2Cl)cc(C(C)(C)C)c1O [CBK268391] | 83.4474
55 | Cn1ccc(CN2CCOC(c3nc(C(C)(C)C)cs3)C2)cc1=O (stereo not drawn) [CBK305771] | 43.589
56 | C#CCN(C)CC[C@@H]1CC[C@H](O)[C@@H](C(=O)N2CCOCC2)O1 [CBK288723] | 102.927
57 | CCOc1ccccc1NC(=O)CN(C)S(=O)(=O)c1ccc2ccccc2c1 [CBK266874] | 106.027
58 | O=C(Nc1ccc(S(=O)(=O)N2CCCC2)cc1)c1ccc(COc2ccc3c(c2)CCC3)o1 [CBK265847] | 70.5705
59 | O=C(O)C1CCCCC1C(=O)NCCN1CCCCC1 (stereo not drawn) [CBK287031] | 64.0365
60 | O=C(CC1(O)C(=O)N(Cc2ccc3c(c2)OCO3)c2ccccc21)c1ccccn1 (stereo not drawn) [CBK269725] | 92.9071
61 | Cc1cccc(C)c1OCc1nnc(SCc2ccc([N+](=O)[O-])cc2)n1C [CBK269737] | 93.1605
62 | CCCCN(CCCC)S(=O)(=O)c1nc2nc(C)cc(C)n2n1 [CBK022076] | 64.9104
63 | O=C(NCCN1CCN(C(=O)Nc2ccccc2)CC1)C1CCCC1 [CBK305915] | 76.7466
64 | CS(=O)(=O)c1ccc(-n2ncc(-c3cccc(C(F)(F)F)c3)n2)cc1 [CBK112672] | 69.5434
65 | O=C(O)CCSCc1ccc([N+](=O)[O-])cc1 [CBK262359] | 92.6887
66 | Cc1cnn(CC(=O)N2CC[C@H]3NC(=O)c4ccccc4OCCCCC[C@H]3C2)c1 [CBK292010] | 79.1054
67 | Cc1cccc(NS(=O)(=O)c2ccc(OCC(=O)Nc3ccc4c(c3)OCCO4)cc2)c1 [CBK268068] | 86.5336
68 | O=C(NCc1ccncc1)c1nn(-c2ncccn2)c2ccccc12 [CBK048498] | 111.673
69 | CN(C)CCNC1CS(=O)(=O)CC1O (stereo not drawn) [CBK059025] | 47.1004
70 | COc1nccc(N2CCC3(CCCN(CC4CCC4)C3=O)C2)c1C#N (stereo not drawn) [CBK306861] | 93.5512
71 | NS(=O)(=O)c1ccc(NC(=O)CN2C(=O)S/C(=C\C=C\c3ccccc3)C2=O)cc1 [CBK264835] | 90.1478
72 | Cc1cccc(CNC(=O)CC2CCN(Cc3cccc(C(F)(F)F)c3)CC2)n1 [CBK285950] | 86.3889
73 | CC(C)(N)CN(Cc1ccccc1)C(=O)/C=C/c1ccccc1 [CBK013891T] | 64.5717
74 | CCN(CC1CCN(c2ccccn2)CC1)C(=O)C1(C#N)CCCC1 [CBK304096] | 51.2263
75 | O=S(=O)(Nc1ccc(-c2nnn[nH]2)cc1)c1c(Cl)cc(C(F)(F)F)cc1Cl [CBK155570] | 89.2026
76 | CC(C)Nc1nc2cc(Cl)c(Cl)cc2nc1SCCC(=O)O [CBK107860] | 92.2666
77 | C(#Cc1ccc(-c2nc(-c3ccc(Sc4ccccc4)cc3)c(-c3ccc(Sc4ccccc4)cc3)[nH]2)cc1)c1ccccc1 [CBK261954] | 53.4307
78 | CCC12CN3CCN(CC(C3)/C1=N\O)C2 [CBK263022] | 108.141
